Among all 330,000 compounds or so, about 300 (0.091%) were called active. Inconclusive results, whose numbers are uncertain, are shown with a selection of clear calls. The call rests on the fitted dose curve; in most records, active means well fitted inhibition curve with a large enough effect; inconclusive means small, poorly fitted or top-dose-only effect, or effect the other way, or another doubt; inactive means no such curve, though single readings can be large or run the other way. No potency is given beside an inconclusive call; the fits are too rough.
Target: Lysosomal acid glucosylceramidase (Homo sapiens) (UniProt P04062)
Assay: qHTS Assay for Inhibitors and Activators of N370S glucocerebrosidase as a Potential Chaperone Treatment of Gaucher Disease;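 on activity change, negative = inhibition: 0% = full enzyme activity and -100% = no enzyme basal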
Conditions: N370S GC spleen homogenate, 4MU-glucoside fluorescence; activity change, negative = inhibition: at 59.4 µM (top of the series) unless noted
Potency means the concentration at half of the fitted maximal effect.

Compound	Potency	activity change, negative = inhibition
CC(C)(C)c1ccc(OCCOc2ccc(C(C)(C)C)cc2NC=O)c(NC=O)c1	inconclusive [activator, full curve]	–
Cc1cc(C)c2cc(CN(CC3CCCO3)C(=S)NCc3ccco3)c(=O)[nH]c2c1 (stereo unspecified)	inconclusive [activator, partial curve]	–
N=c1n(CCCOc2ccc(Br)cc2)c2ccccc2n1CC(N)=O	inconclusive [inhibitor, single point]	–
COC(=O)C1=CN(Cc2ccccc2)C=C(C(=O)OC)C1c1ccc(OC)c(OC)c1	inconclusive [activator, single point]	–
Cc1cc2nc(SCC(=O)N(C)C)c3c(c2cc1C)CCCC3	inconclusive [activator, single point]	–
N#Cc1c(C(F)(F)F)cc(=O)n2c1[nH]c1ccccc12	inconclusive [activator, partial curve]	–
CC(C)Oc1ccc(S(=O)(=O)N2CCCCC2)cc1NC(=O)C1=COCCO1	inconclusive [activator, partial curve, poor fit]	–
O=c1c2ccccc2oc2ccc(Oc3ccccc3)cc12	inconclusive [activator, single point]	–
COc1ccc(-c2cc(C(=O)Nc3cc(C)ccc3O)no2)cc1	inactive	–
Cc1[nH]c2ccccc2c1/C=N/NC(=O)c1cccc(S(=O)(=O)Nc2cccc(C(F)(F)F)c2)c1	inconclusive [activator, full curve, poor fit]	–
C/C(=N/NC(=O)c1ccc(C)s1)c1cccc(NC(=O)c2ccoc2C)c1	inconclusive [activator, partial curve]	–
NC1=NC(c2cn(-c3ccccc3)nc2-c2cccs2)n2c(nc3ccccc32)N1 (stereo unspecified)	inconclusive [inhibitor, full curve, poor fit]	–
O=C(C1=C[C@@H](c2ccc(C(F)(F)F)cc2)C[C@@H](OCc2ccc(CO)cc2)O1)N1CCN(Cc2ccc3c(c2)OCO3)CC1	active: 10 µM	–
O=C(Nc1ccc(Oc2c(F)c(F)c(F)c(F)c2F)cc1)OC1CCN2Cc3ccccc3N=C12 (stereo unspecified)	inconclusive [activator, single point]	–
COc1cc(C2CC(c3ccccc3)=NN2c2ccccc2)ccc1OCC(=O)O (stereo unspecified)	inconclusive [activator, partial curve]	–
CCCC(=O)Nc1ccc2nn(-c3ccc(OC)cc3)nc2c1	inconclusive [activator, partial curve]	–
COc1cccc(C2C3=C(CC(C)(C)CC3=O)Nc3cc(OC)c(OC)cc32)c1 (stereo unspecified)	inconclusive [activator, partial curve]	–
CC(C)c1ccc(NS(=O)(=O)c2ccc(-n3cccn3)cc2)cc1	inconclusive [inhibitor, single point]	–
Cc1cccc2c1ncc1c(=O)n(-c3ccccc3)[nH]c12	inconclusive [activator, partial curve]	–
COc1ccc(-c2noc(-c3cccnc3)n2)cc1OC	inactive	–
COCCNc1c(-c2ccc(OC)c(OC)c2)nc2ccc(Cl)cn12	inactive	–

Compound	Potency	activity change, negative = inhibition
Cc1cc(-c2nn(-c3ccccc3F)cc2CN(C)CC(O)CO)c(C)s1 (stereo unspecified)	inconclusive [inhibitor, partial curve]	–
COc1ccc(/C=N\NC(=O)c2ccccc2Cl)cc1COc1c(F)c(F)c(F)c(F)c1F	inconclusive [activator, single point]	–
COC(=O)COc1ccc(Cl)cc1C1Nc2ccccc2C(=O)N1c1ccc(OC)cc1 (stereo unspecified)	inconclusive [activator, partial curve]	–
Cc1cccc(-c2nnc(-c3cccc(NC(=O)Cc4cccs4)c3)o2)c1	inactive	–
CCc1ccc(-c2cc(C)no2)cc1S(=O)(=O)NCCCN1CCN(c2ccccc2)CC1	inconclusive [inhibitor, single point]	–
COc1cc(NS(=O)(=O)c2ccc([N+](=O)[O-])cc2)c2ncccc2c1	inactive	–
CCn1c(C)csc1=NC(=O)c1ccccc1O	inconclusive [activator, full curve]	–
COC(=O)[C@@]1(Cc2ccc(F)cc2)[C@H]2c3cc(C(=O)N(C)C)n(CCc4ccc(OC)c(Br)c4)c3C[C@H]2CN1C(=O)c1ccccc1	inconclusive [inhibitor, full curve, poor fit]	–
O=c1cc(-c2ccc(O)cc2)oc2c([C@@H]3O[C@H](CO)[C@@H](O)[C@H](O)[C@H]3O)c(O)c([C@@H]3O[C@H](CO)[C@@H](O)[C@H](O)[C@H]3O)c(O)c12	inconclusive [inhibitor, partial curve]	–
O=C(Nc1cccnc1)c1cc2c(s1)-c1ccccc1OC2	inconclusive [activator, partial curve]	–
CCn1c(NC(=O)c2cccs2)nc2ccccc21	inconclusive [activator, partial curve]	–
Cc1cc(=O)oc2c(CN3CCN(C)CC3)c(O)c(Cl)cc12	inconclusive [activator, partial curve]	–
CCNC(=S)N(CCO)Cc1cc2cc3c(cc2[nH]c1=O)OCO3	inconclusive [activator, single point]	–
C#CCOCCOCCOCCNc1nc(N2CCN(C(=O)CCCCCCCCCCNC(=O)Cn3cc(C[C@@H](C)O)nn3)CC2)nc(N2CCN(C(=O)CCCCCCCCCCNC(=O)[C@@H]([C@H](C)CC)n3cc(CCCCCN)nn3)CC2)n1	inconclusive [inhibitor, partial curve, poor fit]	–
CCn1ncc(/C=C/C(=O)Nc2c(C)nn(Cc3ccc(Cl)cc3Cl)c2C)c1C	inconclusive [inhibitor, single point]	–
Cc1cccc(-c2nn(-c3ccccc3)cc2C(=O)Nc2cccc(S(=O)(=O)NC3=NCCC3)c2)c1	inconclusive [inhibitor, single point]	–
C=CCn1c(SCC(=O)Nc2sccc2C(N)=O)nc2ccc(Cl)cc2c1=O	inconclusive [activator, partial curve]	–
CCn1c2ccccc2c2cc(NC(=O)c3ccccc3[N+](=O)[O-])ccc21	inconclusive [inhibitor, full curve]	–
Cc1cccc(C(=O)N=c2sccn2C)c1[N+](=O)[O-]	inactive	–
COC(=O)c1ccc(C(=O)OC)c(NC(=O)COC(=O)C2CCCCC2)c1	inactive	–
Cc1nn(-c2ccccc2)c2[nH]c(C(F)(F)F)cc(=O)c12	inconclusive [inhibitor, single point]	–

Compound	Potency	activity change, negative = inhibition
O=C1NC(=O)/C(=C\c2ccc(Sc3ccc(Cl)cc3)o2)N1	inconclusive [activator, partial curve]	–
Cc1ccccc1N(C(=O)c1snc(C(N)=O)c1N)C(C(=O)NC1CCCCC1)c1ccc(O)cc1 (stereo unspecified)	inconclusive [activator, single point]	–
Cc1cc(C(F)F)n2ncc(C(=O)NCCc3ccc(Cl)cc3)c2n1	inconclusive [activator, partial curve, poor fit]	–
Cc1nc(-c2cccnc2)sc1C(N)=O	inconclusive [inhibitor, single point]	–
COc1ccc(-n2c(N)c(C(=O)NCc3ccco3)c3nc4ccccc4nc32)c(OC)c1	inconclusive [activator, partial curve]	–
COc1cccc(C(=O)N(Cc2nc(-c3cccc(C)c3)no2)C(C)C)c1OC	inconclusive [activator, partial curve]	–
CCn1c2ccccc2c2cc(/C=N/n3c(C)nnc3C)ccc21	–	inconclusive: 31.5% [activator]
CCOc1cc(N2CCCC2)ccc1[N+](=O)[O-]	inconclusive [activator, partial curve, poor fit]	–
S=C(c1ccc(-c2cccc(Cl)c2)o1)N1CCCCC1	inactive	–
O=C(Nc1ccccc1)C1=C[C@@H](c2ccc(C(F)(F)F)cc2)C[C@@H](OCc2ccc(CO)cc2)O1	inconclusive [activator, partial curve]	–
O=C(c1cc2ccccc2o1)N1CCN(c2ccccc2Cl)CC1	inconclusive [activator, single point]	–
O=C(O)C1CC(c2ccccc2)=Nc2ccccc2S1 (stereo unspecified)	inconclusive [activator, single point]	–
CN1CCSc2ccc(C(=O)NCc3cccc(Br)c3)cc21	inconclusive [activator, single point]	–
CC1CCN(C(=O)COC(=O)c2c[nH]c3ccccc23)CC1	inactive	–
CC(NC(=O)NC(=O)c1cccc(Cl)c1)c1ccccc1 (stereo unspecified)	inconclusive [activator, partial curve]	–
Nc1nnc(SCC(=O)Nc2sc3c(c2C(=O)c2ccccc2)CCCC3)s1	inconclusive [activator, partial curve, poor fit]	–
N#Cc1c(-c2ccccc2)cc(-c2ccccc2)[nH]c1=O	inconclusive [activator, partial curve, poor fit]	–
COc1cc(/C=N/NC(=O)c2nonc2C)ccc1O	inactive	–
CCOC(=O)c1c(NC(=O)CS(=O)(=O)c2cn(CC)c3ccccc23)sc2c1CCCCC2	inconclusive [activator, partial curve]	–
